The structures appear in SMILES notation. In all, about 110,000 compounds went through this assay and about 230 (0.21%) showed an effect of 50% or more. This is one part of the list.
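Note: 30 min substrate incubation versus DMSO and 10 µM JCP410 controls.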

The assay deals with DPAP1 (Plasmodium falciparum, UniProt Q8IIJ9). Kind of assay: primary screen, percent inhibition; read by cleavage of a fluorogenic dipeptide substrate; higher = more effect of the substance. Details: species or system P. falciparum D10 trophozoite lysates; single well.
Sequence of DPAP1 (Q8IIJ9 whole entry, looked up): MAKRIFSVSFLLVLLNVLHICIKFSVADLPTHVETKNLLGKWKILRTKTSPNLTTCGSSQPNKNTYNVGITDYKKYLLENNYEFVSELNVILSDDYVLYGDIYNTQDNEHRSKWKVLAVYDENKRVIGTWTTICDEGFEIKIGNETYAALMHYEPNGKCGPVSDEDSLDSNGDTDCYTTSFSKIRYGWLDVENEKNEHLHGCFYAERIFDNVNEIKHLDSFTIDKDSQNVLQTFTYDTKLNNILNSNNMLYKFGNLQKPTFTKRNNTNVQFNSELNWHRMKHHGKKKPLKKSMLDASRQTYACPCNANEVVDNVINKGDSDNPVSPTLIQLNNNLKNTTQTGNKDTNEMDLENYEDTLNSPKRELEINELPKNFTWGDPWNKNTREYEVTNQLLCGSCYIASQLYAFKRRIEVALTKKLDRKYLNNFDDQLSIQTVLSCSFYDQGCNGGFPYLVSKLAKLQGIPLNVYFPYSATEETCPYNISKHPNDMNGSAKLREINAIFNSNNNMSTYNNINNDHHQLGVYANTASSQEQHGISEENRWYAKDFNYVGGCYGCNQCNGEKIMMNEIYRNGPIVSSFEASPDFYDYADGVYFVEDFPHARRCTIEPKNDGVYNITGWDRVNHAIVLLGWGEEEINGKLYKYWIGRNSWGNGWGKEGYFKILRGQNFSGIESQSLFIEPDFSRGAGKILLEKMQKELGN
Consider `NC1=C(c2ccccc2)S(=O)(=O)c2cc(Oc3ccccc3)ccc21`, for which the “% Inhibition @ 10 uM” value came to 1.93%.
The value for `Cc1nc2c(=O)n(C)c(=O)nc-2n(C)n1` was 14.5%; that for `CC(=O)c1ccc(OCCOc2ccc(C#N)cc2)cc1` was -8.51%; that for `COc1ccc2nc(NC(=O)C3CCN(S(=O)(=O)c4cccc5nonc45)CC3)sc2c1` was -1.29%.
The value for `Cc1cc(-c2ccc(C)c(S(=O)(=O)N3CCC(Cc4ccccc4)CC3)c2)on1` was 6.77%; that for `C=Cc1ccc(Cn2c(C(=O)O)c(CNCC3CCCO3)c3ccc(C)cc32)cc1` (centres unmarked) was 4.78%; that for `CC(C)CCNC(=O)c1ccc2c(Cl)c3c(nc2c1)CCC3` was 1.15%.
With `O=C(O)c1ccc2c(c1)C(=O)N(Cc1ccc3c(c1)OCO3)C2=O`, the “% Inhibition @ 10 uM” value was -3.87%.
With `O=C(c1cc2c3c(c1O)CCCN3CCC2)C(F)(F)F` the figure was -9.33%; with `O=C(COc1ccc(Cl)cc1)Nc1ccc(S(=O)(=O)N2CCOCC2)cc1`, -2.24%.
The value for `O=C(CCN1C(=O)c2ccccc2S1(=O)=O)Nc1ccccc1O` was 3.17%; that for `COc1cc2c(cc1OC)C1=C(C#N)CN(CCO)CN1CC2` was -2.45%.
As for `Clc1ccccc1Cc1nn[nH]n1`, the “% Inhibition @ 10 uM” value stood at 3.99%.
As to `CCOC(=O)C1=C(CS(=O)(=O)c2ccc(C)cc2)NC(=O)NC1c1ccc(OC)cc1OC` (centres unmarked), the “% Inhibition @ 10 uM” value was -2.16%.
The value for `COc1cccc(C2=CC(c3ccccc3C)n3nnnc3N2)c1` (centres unmarked) was -9.03%.
Take `COc1ccc(-c2noc(NCCc3c[nH]c4ccccc34)n2)cc1`: the “% Inhibition @ 10 uM” value is listed as -1.44%.
On to `O=C(Cn1c2c(c(-c3ccccc3)cc1=O)CCCC2)NCc1ccc(F)cc1`, for which the “% Inhibition @ 10 uM” value was 4.47%.
The value for `CC1=C(C(=O)Nc2cc(C)ccn2)C(c2ccc(F)cc2)C2=C(O)CC(C)(C)CC2=N1` (centres unmarked) was -6.36%; that for `COc1ccccc1N1C(=O)c2ccc(S(=O)(=O)c3ccc(C(=O)O)cc3)cc2C1=O` was 5.17%.
With `O=C(NCCc1c[nH]c2ccccc12)c1nsc(Cl)c1Cl`, the “% Inhibition @ 10 uM” value stood at 0.415%.
For the molecule `CCOc1ccccc1CNCc1c(C(=O)O)[nH]c2cc(OC)ccc12`, the “% Inhibition @ 10 uM” value is reported as -4.46%.
With `O=[N+]([O-])c1ccc(Oc2ccc(S(=O)(=O)NC3CCCCC3)cc2)cc1` the figure was -6.22%; with `CCOc1cc2c(cc1OCC)C(c1ccc(F)cc1)NCC2` (centres unmarked), -0.891%.
With `N#Cc1cc2c(nc1SCC(=O)NCc1ccc3c(c1)OCO3)C1CCN2CC1` the figure was 6.31%; with `COCCNc1nc2ccccc2c2nc(CCn3c(C)nc4ccccc43)nn12`, -3.13%; with `CO/C(O)=C1/C(C)=NC2=C(C(=O)CC(c3ccccc3)C2)C1c1ccc(N(C)C)cc1` (centres unmarked), 5.01%.
The value for `Cc1cc(=O)oc2cc(OCc3ccccc3)c(O)cc12` was 2.94%; that for `Nc1ccc2nc(-c3cccc(Cl)c3)oc2c1` was 4.41%.
For `CCOc1ccc2nc(N3CCC(C(=O)N4CCOCC4)CC3)sc2c1`, the “% Inhibition @ 10 uM” value stood at 3.4%.
With `CCN1CCN(Cc2ccc(Cl)cc2)CC1` the figure was -5.57%; with `CCN(CC)c1ncnc2c1c(-c1ccccc1)cn2-c1ccc(OC)cc1`, 4.46%; with `O=C(NCc1cccnc1)c1cc(-c2cccnc2)nc2ccccc12`, -4.06%.
With `COc1ccc(-c2cn3c(n2)sc2cc(C(=O)N4CCN(C(=O)c5ccco5)CC4)ccc23)cc1` the figure was 32.5%; with `O=C(Nc1ccccc1)Nc1ccc(N2CCOCC2)cc1`, 6.21%.
The value for `CCOc1cc(C(=O)Nc2nccs2)cc(OCC)c1OCC` was -5.79%.
Regarding `N#Cc1c(O)ncc2c1N(Cc1ccccc1)CC2`, the “% Inhibition @ 10 uM” value was -1.42%.
Turning to `CC(=O)Nc1cccc(NC(=O)c2ccc(-c3ccccc3)cc2)c1`, the “% Inhibition @ 10 uM” value was -1.94%.
The value for `N=C(N)Nc1nc2ccccc2s1` was -2.51%; that for `CCC1CCC(N2CCN(c3ccc([N+](=O)[O-])cc3)CC2)CC1` (centres unmarked) was -4.04%; that for `Cc1ccccc1/C=C1/SC(=O)NC1=O` was 4.86%.
With `c1ccc(N2CCN(C3CCSC3)CC2)cc1` (centres unmarked) the figure was 0.565%; with `O=C(CCNS(=O)(=O)c1cccc2nsnc12)N1CC(=O)N(CCc2ccccc2)C(=O)C1`, 0.457%; with `Cc1ccc(C)c2c(N)c3c(nc12)CCCCC3`, -6.46%.
On to `Brc1ccccc1OCCCCN1CCOCC1`, for which the “% Inhibition @ 10 uM” value was -8.37%.
With `O=C(O)C(=O)Cc1ccccc1` the figure was -3.78%.
The value for `FC(F)(F)c1ccc(N2CCN(c3ccccc3)CC2)nc1` was 3.66%; that for `COc1ccccc1C1CN(c2ccc(Cl)cc2)N=C1c1cccs1` (centres unmarked) was -6.12%.
As to `CC(CCc1ccccc1)NC(=O)C1CCN(c2ncnc3c2nc2n3CCCCC2)CC1` (centres unmarked), the “% Inhibition @ 10 uM” value is listed as 1.66%.
Take `Cc1c(CC(=O)O)c(=O)oc2cc3occ(C(C)(C)C)c3cc12`: the “% Inhibition @ 10 uM” value was -6.29%.
With `O=C(Nc1cccc(O)c1)/C(=C\c1ccsc1)NC(=O)c1ccccc1` the figure was 1.4%.
The value for `CC(=O)C1=C(C)NC(SCC(N)=O)=C(C#N)C1c1ccncc1` (centres unmarked) was -6.6%.
The value for `Cc1ccc2[nH]c3c(Cl)ncnc3c2c1` was -1.6%; that for `CC1=C(C(=O)OCCOc2ccccc2)C(c2ccc(Cl)cc2Cl)CC(=O)N1` (centres unmarked) was -1.62%; that for `COC(=O)c1c(NC(=O)C(=O)NCCCn2ccnc2C)sc(C)c1C` was 29.6%.
As for `COC(=O)c1c(NC(=O)c2cncc(Br)c2)sc2c1CCC(C)C2` (centres unmarked), the “% Inhibition @ 10 uM” value came out at 0.343%.
With `Cc1ccc(/C=C(\C#N)S(=O)(=O)c2ccccc2)o1` the figure was 7.73%; with `CNS(=O)(=O)c1cn(CC(=O)NCCc2ccccc2)cc1S(=O)(=O)NC`, -2.87%.
In the case of `CC(C)c1ccc(S(=O)(=O)NC(C)c2ccccc2)cc1` (centres unmarked), the “% Inhibition @ 10 uM” value is recorded as -1.56%.
The value for `O=C(Cn1ncc2ccsc2c1=O)N1CCC(Cc2ccccc2)CC1` was -6.52%; that for `Cc1cccn2cc(CNC(=O)c3ccccc3C(F)(F)F)nc12` was 3.3%.
The value for `COc1cc(CCNCc2c(C(=O)O)n(Cc3ccccc3F)c3ccccc23)cc(OC)c1OC` was 7.44%.
The value for `CC(C)Oc1cccc(-c2cc(C(=O)Nc3ccncc3)c3ccccc3n2)c1` was -3.05%; that for `Cc1c(C)n(Cc2ccccc2)c2ccc(C(=O)NCCCOC(C)C)cc12` was -2.65%; that for `Cc1nc2c(-c3ccc(F)cc3)c(C)nn2c(C)c1CCC(=O)NC(C)CCc1ccco1` (centres unmarked) was 1.26%.
With `Cc1sc(NC(=O)c2ccccc2)c(C(c2ccncc2)N2CCOCC2)c1C` (centres unmarked), the “% Inhibition @ 10 uM” value was determined as 0.145%.

Source of the values: article PMC6919601, “Identification of Plasmodium dipeptidyl aminopeptidase allosteric inhibitors by high throughput screening” (PLoS ONE, 2019).
